Hit rate of the full screen: of about 110,000 compounds, about 230 (0.21%) showed an effect of 50% or more. Some of the results follow.
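Also: 30 min substrate incubation versus DMSO and 10 µM JCP410 controls.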

In this experiment the target is DPAP1 (Plasmodium falciparum, UniProt Q8IIJ9). As to the kind of experiment: primary screen, percent inhibition; read by cleavage of a fluorogenic dipeptide substrate; higher = more effect of the substance. The arrangement: species or system P. falciparum D10 trophozoite lysates; single well.
DPAP1, sequence (Q8IIJ9 whole entry, looked up): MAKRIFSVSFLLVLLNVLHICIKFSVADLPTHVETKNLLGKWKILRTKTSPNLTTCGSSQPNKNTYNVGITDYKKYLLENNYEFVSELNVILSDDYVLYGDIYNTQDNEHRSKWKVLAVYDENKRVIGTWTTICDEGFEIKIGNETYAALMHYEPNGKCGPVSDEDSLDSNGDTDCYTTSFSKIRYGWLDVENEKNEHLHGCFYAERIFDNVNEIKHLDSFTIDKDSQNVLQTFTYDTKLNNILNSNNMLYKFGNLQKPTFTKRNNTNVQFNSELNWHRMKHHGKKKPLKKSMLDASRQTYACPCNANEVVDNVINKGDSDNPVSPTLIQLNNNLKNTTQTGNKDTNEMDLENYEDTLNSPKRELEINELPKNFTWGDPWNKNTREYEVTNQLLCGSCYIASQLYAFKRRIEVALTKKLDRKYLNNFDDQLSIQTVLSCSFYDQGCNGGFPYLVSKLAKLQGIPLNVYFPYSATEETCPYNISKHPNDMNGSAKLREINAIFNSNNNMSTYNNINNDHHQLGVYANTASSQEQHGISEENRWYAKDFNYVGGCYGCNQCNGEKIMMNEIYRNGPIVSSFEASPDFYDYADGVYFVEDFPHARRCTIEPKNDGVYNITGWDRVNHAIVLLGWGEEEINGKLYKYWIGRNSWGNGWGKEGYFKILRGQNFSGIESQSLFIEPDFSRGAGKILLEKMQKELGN
Take `Cc1cc(Br)ccc1OCC(=O)N1CCN(Cc2ccccc2)CC1`: the “% Inhibition @ 10 uM” value was -8.75%. As for `O=C(COCc1cc(-c2cccs2)on1)Nc1cccnc1`, the “% Inhibition @ 10 uM” value is -0.234%. For the compound `OCC#CCSc1nc2ccccc2n1Cc1ccccc1`, the “% Inhibition @ 10 uM” value turned out to be 1.74%.

For the compound `CCCOc1ccc(Cc2nn3c(=O)/c(=C\c4ccc(C(=O)OC)cc4)sc3nc2=O)cc1`, the “% Inhibition @ 10 uM” value is on record as -2.29%. With `Cc1ccc(S(=O)(=O)N2CCC(C)CC2)cc1[N+](=O)[O-]`, the “% Inhibition @ 10 uM” value was found to be 5.03%.

In the case of `O=C(O)c1ccccc1C(=O)Nc1cccc(Br)c1`, the “% Inhibition @ 10 uM” value was 3.93%.

For `O=C1C(c2ccc(F)cc2)N(Cc2ccccc2)C(=O)CN1C1CCCCCC1` (stereo not shown), the “% Inhibition @ 10 uM” value worked out at 2.79%. For the compound `C=CCOc1ccc(Cl)cc1CNC(C)(C)CO`, the “% Inhibition @ 10 uM” value is recorded as -3.23%.

Regarding `O=C(CCCN1C(=O)CSc2ncccc21)NCCN1CCOCC1`, the “% Inhibition @ 10 uM” value was -4.15%. The result for `CCN(CC)CC(O)c1ccc(C2CCCC2)cc1` (stereo not shown) reads 3.05%; that for `Cc1sc2ncn(CC(=O)NCC(=O)N3CCC(Cc4ccccc4)CC3)c(=O)c2c1C`, -3.93%. For `Cc1cc(C)c(NC(=O)c2cc3c(C)nn(-c4ccccc4)c3s2)c(C)n1` the value was 3.72%; for `COc1ccc(N2CC(C(=O)NC3=NCCS3)CC2=O)cc1` (stereo not shown), 1.27%; for `Oc1ccccc1-c1n[nH]c(/C=C/c2cccs2)n1`, -8.71%. Turning to `CC12CC(/C(=C(O)\C=C\c3ccccc3)C(=O)N1)c1ccccc1O2` (stereo not shown), the “% Inhibition @ 10 uM” value was -1.29%. For `COc1cc(/C=C(\C#N)c2nc3ccccc3[nH]2)cc(OC)c1OC` the value was 2.24%. Take `C=CCNC(=O)c1ccccc1NC(=O)C(C)SCc1ccccc1` (stereo not shown): the “% Inhibition @ 10 uM” value came out at 5.65%. For `Fc1ccc(C2=CCN(C3CCN(CCc4ccccc4)CC3)CC2)cc1` the value was 1.9%; for `CCOc1ccc(C(=O)C2=C(O)C(=O)N(CCCN(C)C)C2c2ccc(C(C)(C)C)cc2)cc1C` (stereo not shown), 1.52%; for `CCc1nn(CC(=O)NCCC(C)C)c(=O)c2cc3ccccc3n12`, 3%. For `CCOCCCNC(=O)c1[nH]c(C)c(C(C)=O)c1C`, the “% Inhibition @ 10 uM” value is recorded as 1.23%. The result for `CCOC(=O)C1=C(C(F)(F)F)Nc2ncnn2C1c1c(C)nn(-c2ccc(Cl)cc2)c1Cl` (stereo not shown) reads -7.32%; that for `Cn1c(=O)n(C)c2cc(/C=C3/SC(=O)N(CC(=O)Nc4ccccc4)C3=O)ccc21`, 11.8%. As to `C/C(=N\O)c1ccc(OCCOc2ccc([N+](=O)[O-])cc2)cc1`, the “% Inhibition @ 10 uM” value is recorded as -5.28%. Regarding `CCN(CC)CCNC(=O)CCc1nnc2ccc(N3CCC(C)CC3)nn12`, the “% Inhibition @ 10 uM” value is given as -2.26%. The result for `CCOc1ccc(CCN2C(=O)CCC2(C)C(=O)NC2CCCC(C)C2C)cc1OCC` (stereo not shown) reads -4.97%; that for `COCCN1C(=O)c2c(C)nc3ccccc3c2C1=O`, -8.18%; that for `CCC(C)(C)C1CCc2nc3sc(C(=O)Nc4ccc(S(N)(=O)=O)cc4)c(N)c3cc2C1` (stereo not shown), -8.28%. The result for `CC1=CC2=NC(=O)/C(=C\c3ccc(-c4cccc(C(=O)O)c4)o3)C(=N)N2O1` reads 3.63%; that for `Fc1ccc(CN2CCN(Cc3ccccc3)CC2)cc1F`, 3.1%; that for `CC1CCCC(N2CCN(C)CC2)C1` (stereo not shown), -1.81%.

Consider `COCCNCc1c(C(=O)O)c(C)n(Cc2ccc(F)cc2)c1C`, for which the “% Inhibition @ 10 uM” value is listed as -11.3%. The result for `O=C(c1cc(-c2ccccc2)[nH]n1)N1CCN(C2CCCCC2)CC1` reads -1.3%; that for `NC(=O)C1(N2CCCCC2)CCN(c2nc3ccccc3c3nc(-c4cccnc4)nn23)CC1`, 0.981%. For `CCOc1cc(CN2CCCN(C)CC2)ccc1OC` the value was -1.86%; for `CCC(CO)NS(=O)(=O)c1ccc(OC)c(-c2nnc3c4ccccc4c(C)nn23)c1` (stereo not shown), 2.31%. The result for `COc1ccc(C(=O)CC(=O)c2ccc(F)cc2)cc1` reads -6.58%. As for `CC1C(=O)C(C)C(c2ccc(O)cc2)NC1c1ccc(O)cc1` (stereo not shown), the “% Inhibition @ 10 uM” value came out at 2.65%. For `Cc1ccc2oc(-c3ccccc3)cc2c1` the value was 2.45%.

For the compound `N#Cc1ccccc1Cn1c(=O)n(Cc2ccccc2)c(=O)c2c3c(sc21)CCC3`, the “% Inhibition @ 10 uM” value is 3.5%.

In the case of `O=C(Nc1sc2c(c1C(=O)O)CCC2)c1ccc(Cl)cc1`, the “% Inhibition @ 10 uM” value came to 13%. With `CCCCCc1ccc(-c2ccc(-c3noc(-c4cccc(C)c4)n3)cc2)cc1`, the “% Inhibition @ 10 uM” value is given as -4.08%. For `COc1ccc(N2CCN(c3oc(COc4ccccc4OC)nc3C#N)CC2)cc1` the value was 2.38%; for `COc1ccc(NS(=O)(=O)C[C@H](CCc2ccccc2)NC(=O)[C@H](CC(C)C)NC(=O)c2ccc3[nH]ccc3c2)cc1`, 5.05%; for `CC(C)(C)OC(=O)NCc1cccc(C(=O)N[C@@H](CC2CCCCC2)C(=O)NCC#N)c1`, -0.214%. `CCOC(=O)c1c(-n2ncnc2-c2sccc2C)sc2c1CCCC2`: the “% Inhibition @ 10 uM” value is -3.6%. `CCc1ccc(N2CC(C(=O)Nc3c(C)cc(C)cc3C)CC2=O)cc1` (stereo not shown): the “% Inhibition @ 10 uM” value was -0.28%. `O=C1CCCCC1NC(=O)[C@H](CS(=O)(=O)Cc1ccccc1OC(F)F)NC(=O)N1CCOCC1` (stereo partly shown): the “% Inhibition @ 10 uM” value is 8.48%. `Cc1ccccc1Nc1nc(-c2cccs2)cs1`: the “% Inhibition @ 10 uM” value was -1.85%. For `Cc1ccccc1OCC(=O)Nc1nnc(SCc2ccccc2F)s1` the value was 16.1%; for `Cn1c(=O)c2sccc2n2c(CCCC(=O)NCc3ccc(F)cc3)nnc12`, 16%; for `COC(=O)c1c(NC(=O)COc2cc(Cl)ccc2Cl)sc2c1CCCC2`, 4.35%. For `Cc1ccc(-c2cc(C(=O)NCc3cccnc3)c3ccccc3n2)s1`, the “% Inhibition @ 10 uM” value amounted to 2.65%. For `CCN(CC)S(=O)(=O)c1ccc(NC(=O)COc2ccc(Br)cc2Cl)cc1` the value was -3.45%; for `CSc1nc(C)nc(-c2ccccc2O)n1`, -6.65%. The result for `Cc1ccc(/C=C(\C#N)c2nc(-c3ccc(Cl)c(Cl)c3)cs2)cc1` reads -0.771%; that for `Cc1c(C)n(Cc2ccc(Cl)cc2)c2ccc(C(=O)NCCCN3CCN(C)CC3)cc12`, 0.747%; that for `Cc1cccc(NS(=O)(=O)c2ccc(NS(=O)(=O)c3ccc4c(c3)OCCO4)cc2)c1`, -0.99%. Take `CC1(C)CC(=O)C2=C(C1)N(c1c(F)cccc1F)C(N)=C(C#N)C2c1ccsc1` (stereo not shown): the “% Inhibition @ 10 uM” value is reported as 3.46%. For `Cc1cccc(C)c1OCC(=O)Nc1sc2c(c1C(=O)NCC1CCCO1)CCCC2` (stereo not shown) the value was -5.35%; for `CC(C)C[C@H](NC(=O)OCc1ccc(Cl)cc1)C(=O)NCC#N`, -4.72%. Consider `CCCc1cc(-c2[nH]ncc2-c2ccc3c(c2)OCCCO3)c(O)cc1O`, for which the “% Inhibition @ 10 uM” value is reported as 11.3%.

In the case of `O=C(Nc1cc2ccc(O)cc2oc1=O)c1ccc(F)cc1`, the “% Inhibition @ 10 uM” value was found to be 0.032%.

Consider `Cc1ccc(N2C(=O)CSC2c2ccccc2)cc1` (stereo not shown), for which the “% Inhibition @ 10 uM” value is reported as 0.467%. For `COc1cc(/C=C/c2n[nH]c(-c3ccccc3O)n2)cc(OC)c1OC` the value was -1.11%; for `O=C(COc1ccccc1)N1c2ccccc2Sc2ccccc21`, 1.41%. The result for `CCOc1ccc(N(CC(=O)NC2CC3CCC2C3)S(=O)(=O)c2ccc(Cl)cc2)cc1` (stereo not shown) reads 4.83%; that for `CCC1=C(c2ccc(C)cc2)S(=O)(=O)N=C1NCC(=O)NC1CCN(Cc2ccccc2)CC1`, 3.82%; that for `Cc1cc(C)c2c(n1)SCC(=O)N2CC(=O)NC1CCN(Cc2ccccc2)CC1`, 4.02%.

With `CCc1nc(C)ccc1OCC(N)=O`, the “% Inhibition @ 10 uM” value is on record as -5.32%.

Regarding `CCOP(=O)(OCC)/C(=C(\NC(=O)c1ccccc1)C(=O)Nc1ccc(Cl)cn1)c1ccccc1`, the “% Inhibition @ 10 uM” value is reported as -5.38%. For the compound `Cc1cc(C)c2c(-n3cccc3)nn(CC(=O)NCCc3ccc(Cl)cc3)c2n1`, the “% Inhibition @ 10 uM” value was determined as 7.81%. The result for `Cc1nc2c(-c3ccccc3)c(C)nn2c(C)c1CC(=O)NC(C)(C)C` reads -2.45%. The result for `COc1ccc(CCNC(=O)C2CCC(C/N=c3/c(N4CCCC4)c(O)c3=O)CC2)cc1OC` (stereo not shown) reads -0.447%.

Take `Cc1ccc(NC(=O)CCN2C(=O)c3ccccc3C2=O)c(C)c1`: the “% Inhibition @ 10 uM” value was -6.02%. For `O=C(NCCC1=CCCCC1)c1cc(-c2ccc(Br)cc2)n[nH]1`, the “% Inhibition @ 10 uM” value was determined as 1.76%. With `CN1C(=O)/C(=C\c2cn(C)c3ccccc23)S/C1=N\c1ccccc1`, the “% Inhibition @ 10 uM” value was -1.84%. On to `Cc1cc(=O)n2nc(N3CCC(C(=O)NC4CCC(C)CC4)CC3)sc2n1` (stereo not shown), for which the “% Inhibition @ 10 uM” value is on record as 1.38%. As to `O=C(COc1ccc(S(=O)(=O)NC2CCCC2)cc1)Nc1cc(C(F)(F)F)ccc1Cl`, the “% Inhibition @ 10 uM” value is reported as -2.32%.

Regarding `COc1ccc(NC(=O)c2ccc(N(C)S(=O)(=O)c3ccccc3)cc2)cc1OC`, the “% Inhibition @ 10 uM” value is reported as -1.43%. As for `CCN(CC)C(=O)C1Sc2nnc(C)n2NC1c1ccc(C)cc1` (stereo not shown), the “% Inhibition @ 10 uM” value came to 1.72%. For `CCN1CCC(N2CCN(CCO)CC2)CC1` the value was 3.68%; for `CCOc1ccccc1C1C(C#N)=C(SCC(=O)NCc2ccccc2)N=C(C)/C1=C(/O)OC` (stereo not shown), 2.75%; for `Cc1ccc(S(=O)(=O)c2nc(-c3cccs3)oc2NCCCN(C)C)cc1`, -1.36%. The result for `CCOC(=O)N1CCN(C(=O)C2CCN(c3ncnc4c3sc3cccc(F)c34)CC2)CC1` reads 2.65%; that for `CCCNC(=O)C(CC)n1c2ccccc2c2cnnc(O)c21` (stereo not shown), -0.281%. As for `CCCCN(CCCC)S(=O)(=O)c1ccc2oc(C(=O)N3CCOCC3)c(C)c2c1`, the “% Inhibition @ 10 uM” value amounted to 1.16%. Regarding `O=C(Cc1ccc(Br)cc1)NCc1ccccn1`, the “% Inhibition @ 10 uM” value is -2.37%. The result for `CSc1nc(N)nc(SCC(=O)NCc2ccccc2)c1C#N` reads 6.74%. In the case of `O=C(c1ccc(N2C(=O)C3C4C=CC(C4)C3C2=O)cc1)N1CCCCC1` (stereo not shown), the “% Inhibition @ 10 uM” value is reported as -4.65%. For the compound `COc1cc(OC)c2cc(C(=O)O)[nH]c2c1`, the “% Inhibition @ 10 uM” value was determined as 0.883%. Regarding `Cn1c(=O)c2c(nc(SCC(=O)Nc3ccccc3)n2Cc2ccccc2Cl)n(C)c1=O`, the “% Inhibition @ 10 uM” value amounted to 4.09%. Consider `O=C(O)c1ccc(NCc2ccc(F)cc2)cc1`, for which the “% Inhibition @ 10 uM” value is -3.43%. As to `Cc1cc(C)n(S(=O)(=O)c2cc(Cl)ccc2Cl)n1`, the “% Inhibition @ 10 uM” value was found to be 5.7%. The result for `CCOCCCn1c(S)nnc1-c1nn(C)cc1Cl` reads 3.94%; that for `Cc1ccc(-n2nc(C)c(/C=N/c3nc4ccc(Cl)cc4s3)c2O)cc1`, 8.6%.

Take `CNC(=S)NCc1ccc2c(c1)cc(C)n2C`: the “% Inhibition @ 10 uM” value was -3.7%.

The values above are taken from article PMC6919601, “Identification of Plasmodium dipeptidyl aminopeptidase allosteric inhibitors by high throughput screening” (PLoS ONE, 2019).
